We go through 31 molecules from paper PMC9911399, “Two distinct binding modes provide the RNA-binding protein RbFox with extraordinary sequence specificity”.

B1: CUGGUGG (DNA:RNA)
RNA: GGGAGACCGGAAUUCAGAUUGUCCCUGGUGGUUAAAUCCCGUCGUAGCCACCA
DNA 1: CAATCTGAATTCCGGTCTCCC
DNA 2: TGGTGGCTACGACGGGATT
B2: UCAAUCA (DNA:RNA)
RNA: B1 RNA with C25U, U26C, G27A, G28A, G30C, G31A
DNA 1: CAATCTGAATTCCGGTCTCCC
DNA 2: TGGTGGCTACGACGGGATT
B3: CAUGGCC (DNA:RNA)
RNA: B1 RNA with U26A, G27U, U29G, G30C, G31C
DNA 1: CAATCTGAATTCCGGTCTCCC
DNA 2: TGGTGGCTACGACGGGATT
B4: GCUCUCA (DNA:RNA)
RNA: B1 RNA with C25G, U26C, G27U, G28C, G30C, G31A
DNA 1: CAATCTGAATTCCGGTCTCCC
DNA 2: TGGTGGCTACGACGGGATT
B5: CAACUAG (DNA:RNA)
RNA: B1 RNA with U26A, G27A, G28C, G30A
DNA 1: CAATCTGAATTCCGGTCTCCC
DNA 2: TGGTGGCTACGACGGGATT
B6: AUAGCCU (DNA:RNA)
RNA: B1 RNA with C25A, G27A, U29C, G30C, G31U
DNA 1: CAATCTGAATTCCGGTCTCCC
DNA 2: TGGTGGCTACGACGGGATT
B7: GGAGAUU (DNA:RNA)
RNA: B1 RNA with C25G, U26G, G27A, U29A, G30U, G31U
DNA 1: CAATCTGAATTCCGGTCTCCC
DNA 2: TGGTGGCTACGACGGGATT
B8: UUGGGAA (DNA:RNA)
RNA: B1 RNA with C25U, U29G, G30A, G31A
DNA 1: CAATCTGAATTCCGGTCTCCC
DNA 2: TGGTGGCTACGACGGGATT
B9: AGAUUUU (DNA:RNA)
RNA: B1 RNA with C25A, U26G, G27A, G28U, G30U, G31U
DNA 1: CAATCTGAATTCCGGTCTCCC
DNA 2: TGGTGGCTACGACGGGATT
B10: CGCUGUA (DNA:RNA)
RNA: B1 RNA with U26G, G27C, G28U, U29G, G30U, G31A
DNA 1: CAATCTGAATTCCGGTCTCCC
DNA 2: TGGTGGCTACGACGGGATT
B11: GCAUCGA (DNA:RNA)
RNA: B1 RNA with C25G, U26C, G27A, G28U, U29C, G31A
DNA 1: CAATCTGAATTCCGGTCTCCC
DNA 2: TGGTGGCTACGACGGGATT
B12: CCUUUCA (DNA:RNA)
RNA: B1 RNA with U26C, G27U, G28U, G30C, G31A
DNA 1: CAATCTGAATTCCGGTCTCCC
DNA 2: TGGTGGCTACGACGGGATT
B13: UGCAAAA (DNA:RNA)
RNA: GGGAGACCGGAAUUCAGAUUGUCCUGCAAAAUUAAAUCCCGUCGUAGCCACCA
DNA 1: CAATCTGAATTCCGGTCTCCC
DNA 2: TGGTGGCTACGACGGGATT
B14: CUCGGAU (DNA:RNA)
RNA: B1 RNA with G27C, U29G, G30A, G31U
DNA 1: CAATCTGAATTCCGGTCTCCC
DNA 2: TGGTGGCTACGACGGGATT
B15: UGUAGCC (DNA:RNA)
RNA: B13 RNA with C27U, A29G, A30C, A31C
DNA 1: CAATCTGAATTCCGGTCTCCC
DNA 2: TGGTGGCTACGACGGGATT
B16: ACUAAGA (DNA:RNA)
RNA: B13 RNA with U25A, G26C, C27U, A30G
DNA 1: CAATCTGAATTCCGGTCTCCC
DNA 2: TGGTGGCTACGACGGGATT
B17: UUCAGCU (DNA:RNA)
RNA: B13 RNA with G26U, A29G, A30C, A31U
DNA 1: CAATCTGAATTCCGGTCTCCC
DNA 2: TGGTGGCTACGACGGGATT
B18: GUACCCU (DNA:RNA)
RNA: B1 RNA with C25G, G27A, G28C, U29C, G30C, G31U
DNA 1: CAATCTGAATTCCGGTCTCCC
DNA 2: TGGTGGCTACGACGGGATT
B19: AUUGUAG (DNA:RNA)
RNA: B1 RNA with C25A, G27U, G30A
DNA 1: CAATCTGAATTCCGGTCTCCC
DNA 2: TGGTGGCTACGACGGGATT
B20: UCCCGAU (DNA:RNA)
RNA: B13 RNA with G26C, A28C, A29G, A31U
DNA 1: CAATCTGAATTCCGGTCTCCC
DNA 2: TGGTGGCTACGACGGGATT
B21: CUGGGAC (DNA:RNA)
RNA: B1 RNA with U29G, G30A, G31C
DNA 1: CAATCTGAATTCCGGTCTCCC
DNA 2: TGGTGGCTACGACGGGATT
B22: CCAGAGG (DNA:RNA)
RNA: B1 RNA with U26C, G27A, U29A
DNA 1: CAATCTGAATTCCGGTCTCCC
DNA 2: TGGTGGCTACGACGGGATT
B23: GAGUCUA (DNA:RNA)
RNA: B1 RNA with C25G, U26A, G28U, U29C, G30U, G31A
DNA 1: CAATCTGAATTCCGGTCTCCC
DNA 2: TGGTGGCTACGACGGGATT
B24: CCGUACG (DNA:RNA)
RNA: B1 RNA with U26C, G28U, U29A, G30C
DNA 1: CAATCTGAATTCCGGTCTCCC
DNA 2: TGGTGGCTACGACGGGATT
B25: UCUACGC (DNA:RNA)
RNA: B13 RNA with G26C, C27U, A29C, A30G, A31C
DNA 1: CAATCTGAATTCCGGTCTCCC
DNA 2: TGGTGGCTACGACGGGATT
B26: CGACAUA (DNA:RNA)
RNA: B13 RNA with U25C, C27A, A28C, A30U
DNA 1: CAATCTGAATTCCGGTCTCCC
DNA 2: TGGTGGCTACGACGGGATT
B27: GACAAAG (DNA:RNA)
RNA: B13 RNA with U25G, G26A, A31G
DNA 1: CAATCTGAATTCCGGTCTCCC
DNA 2: TGGTGGCTACGACGGGATT
B28: AAAGAUC (DNA:RNA)
RNA: B1 RNA with C25A, U26A, G27A, U29A, G30U, G31C
DNA 1: CAATCTGAATTCCGGTCTCCC
DNA 2: TGGTGGCTACGACGGGATT
B29: GUGCGCG (DNA:RNA)
RNA: B1 RNA with C25G, G28C, U29G, G30C
DNA 1: CAATCTGAATTCCGGTCTCCC
DNA 2: TGGTGGCTACGACGGGATT
B30: GGGAGUG (DNA:RNA)
RNA: B1 RNA with C25G, U26G, G28A, U29G, G30U
DNA 1: CAATCTGAATTCCGGTCTCCC
DNA 2: TGGTGGCTACGACGGGATT
B31: AAGGCCG (DNA:RNA)
RNA: B1 RNA with C25A, U26A, U29C, G30C
DNA 1: CAATCTGAATTCCGGTCTCCC
DNA 2: TGGTGGCTACGACGGGATT

Numbering of substitutions follows the chain as printed; changes in the protein carry UniProt numbers. Some of the results follow.

The test concerns the target T1, RBFOX1 RRM (Homo sapiens, UniProt Q9NWB1 109-208).
T1 sequence: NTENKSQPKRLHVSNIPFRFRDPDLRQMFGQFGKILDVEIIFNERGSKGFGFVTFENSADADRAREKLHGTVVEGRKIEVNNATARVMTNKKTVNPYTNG
Briefly: EMSA; HiTS-Eq, 1 nM pool, 10 min; buffer printed only for the single-RNA assays: 10 mM Tris pH 7.5, 150 mM NaCl, 3.4 mM EDTA, 0.001% NP-40, 30 C. Conditions: tags: His6 N-terminal (pET28a); label: 5' 32P. Put shortly:
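These values rest on relative association constants, computed from read-count changes of each RNA species versus the control reaction and normalised to the cognate motif. Reads came from free RNA recovered by 8% native PAGE after purified RbFox RRM (wild type or mutant) at increasing concentrations was equilibrated for 10 min in 50 µL with 1 nM of a 5′-radiolabelled pool with 7 randomized nucleotides and DNA-annealed flanks.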
In the case of B1, the binding signal was 0.019 KA relative to UGCAUGU.
Next, B2: 0.00144 KA relative to UGCAUGU.
For B3, the binding signal is 0.012 KA relative to UGCAUGU.
On to B4, for which the binding signal is 0.00823 KA relative to UGCAUGU.
Next, B5: 0.00305 KA relative to UGCAUGU; B6: 0.00479 KA relative to UGCAUGU; B7: 0.0219 KA relative to UGCAUGU.
The figure for B8 is 0.0102 KA relative to UGCAUGU.
For B9, the binding signal was 0.0111 KA relative to UGCAUGU.
Next, B10: 0.0108 KA relative to UGCAUGU; B11: 0.0185 KA relative to UGCAUGU; B12: 0.00509 KA relative to UGCAUGU.
The figure for B13 is 0.00723 KA relative to UGCAUGU; for B14 it is 0.00891 KA relative to UGCAUGU; for B15 it is 0.0129 KA relative to UGCAUGU.
As to B16, the binding signal was 0.00644 KA relative to UGCAUGU.
For the molecule B17, the binding signal was 0.0069 KA relative to UGCAUGU.
Regarding B18, the binding signal was 0.00296 KA relative to UGCAUGU.
For the molecule B19, the binding signal was 0.0107 KA relative to UGCAUGU.
Next, B20: 0.000704 KA relative to UGCAUGU; B21: 0.00375 KA relative to UGCAUGU; B22: 0.00932 KA relative to UGCAUGU.
Next, B23: 0.00536 KA relative to UGCAUGU.
For B24, the binding signal was 0.00994 KA relative to UGCAUGU.
B25: the binding signal is 0.00734 KA relative to UGCAUGU.
Take B26: the binding signal is 0.00163 KA relative to UGCAUGU.
The figure for B27 is 0.0104 KA relative to UGCAUGU.
Next, B28: 0.00365 KA relative to UGCAUGU; B29: 0.0262 KA relative to UGCAUGU.
The figure for B30 is 0.0333 KA relative to UGCAUGU; for B31 it is 0.00802 KA relative to UGCAUGU.
